According to paper PMC4336329 (PLoS ONE, 2015):
The campaign covered roughly 310,000 compounds. About 14,000 (4.5%) showed an effect of 50% or more. Effects have a minus sign here. The list shows a part of the results.

Each molecule was assayed against human ether-à-go-go-related gene (hERG) potassium channel (human, UniProt Q12809) (assay: primary screen, population patch clamp on CHO cells stably expressing hERG).
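Note: peak tail current of the secondary pulse compared with the same well before compound.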

human ether-à-go-go-related gene (hERG) potassium channel, sequence (Q12809 whole entry, looked up): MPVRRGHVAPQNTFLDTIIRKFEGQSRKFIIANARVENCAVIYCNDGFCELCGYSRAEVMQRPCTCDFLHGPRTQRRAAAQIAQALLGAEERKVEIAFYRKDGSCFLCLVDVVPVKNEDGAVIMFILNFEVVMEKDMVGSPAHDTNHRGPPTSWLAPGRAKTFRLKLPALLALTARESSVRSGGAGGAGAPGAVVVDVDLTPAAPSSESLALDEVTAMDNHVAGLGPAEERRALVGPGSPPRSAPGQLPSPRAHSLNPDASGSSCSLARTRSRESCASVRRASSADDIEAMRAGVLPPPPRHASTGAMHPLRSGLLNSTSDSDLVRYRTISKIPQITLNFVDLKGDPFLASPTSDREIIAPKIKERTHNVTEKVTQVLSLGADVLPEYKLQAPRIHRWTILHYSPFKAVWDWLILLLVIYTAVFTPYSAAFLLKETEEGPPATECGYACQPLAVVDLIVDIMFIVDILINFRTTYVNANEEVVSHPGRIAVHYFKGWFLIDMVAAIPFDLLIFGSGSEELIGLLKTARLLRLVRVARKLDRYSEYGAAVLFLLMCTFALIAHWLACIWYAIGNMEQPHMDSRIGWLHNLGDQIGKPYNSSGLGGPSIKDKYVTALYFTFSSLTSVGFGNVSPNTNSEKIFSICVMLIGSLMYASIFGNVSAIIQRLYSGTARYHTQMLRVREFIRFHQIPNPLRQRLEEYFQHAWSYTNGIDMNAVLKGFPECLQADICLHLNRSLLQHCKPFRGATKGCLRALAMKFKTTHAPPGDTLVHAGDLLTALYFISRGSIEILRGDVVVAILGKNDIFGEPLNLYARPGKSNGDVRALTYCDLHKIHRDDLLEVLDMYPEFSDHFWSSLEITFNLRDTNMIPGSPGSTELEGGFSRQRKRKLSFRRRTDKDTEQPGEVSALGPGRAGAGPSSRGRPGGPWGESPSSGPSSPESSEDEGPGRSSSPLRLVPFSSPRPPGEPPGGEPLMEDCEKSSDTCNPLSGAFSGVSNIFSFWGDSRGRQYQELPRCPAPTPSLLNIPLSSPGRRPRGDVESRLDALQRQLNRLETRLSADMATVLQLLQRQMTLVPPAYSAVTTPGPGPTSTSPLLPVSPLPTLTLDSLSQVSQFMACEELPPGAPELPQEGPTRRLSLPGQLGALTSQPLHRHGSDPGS

| SMILES | hERG current change (%, negative = inhibition) at 10uM [%] |
| --- | --- |
| CS(=O)(=O)N1CCCC(C(=O)NCCc2ccccc2)C1 (stereo not drawn) | -4.28 |
| COc1ccc(/C=C/C(=O)c2cc(Cl)ccc2O)c(OC)c1 | -7.04 |
| CCS(=O)(=O)N1CCC(C(=O)Oc2ccccc2OC)CC1 | 18.5 |
| CCOc1ccc(NC(=O)COc2ccc(C(=O)NCC3CCCO3)cc2OC)cc1 (stereo not drawn) | -13.4 |
| COc1ccc(NC(=S)NCCc2ccc(F)cc2)c(OC)c1 | -19.4 |
| CCOc1ccc(OCc2cccc(C(=O)N3CCOCC3)c2)cc1 | -1.62 |
| CC(=O)c1sc(-c2ccccn2)nc1C | 16.8 |
| CCc1cccc(CC)c1NC(=O)C1CN(S(=O)(=O)c2ccccc2)CCN1S(=O)(=O)c1ccccc1 (stereo not drawn) | 9.16 |
| CC(=O)c1cc(-c2ccccc2)n(CC(=O)N2CCCC2)c1C | 13.3 |
| Nc1nnc(SCC(=O)Nc2sc3c(c2C(=O)c2ccccc2)CCCC3)s1 | -2.05 |
| CC(OC(=O)/C=C/c1ccccc1)C(=O)Nc1ccc2c(c1)OCCO2 (stereo not drawn) | 16.7 |
| CN1CCN(CCCNC(=O)c2ccc(NC(=O)C3=CSCCO3)cc2)CC1 | 11.5 |
| O=C(O)C(Br)CBr (stereo not drawn) | 23.6 |
| Cc1nonc1C1CCCN1Cc1cn[nH]c1-c1ccc(-c2ccccc2)cc1 (stereo not drawn) | -24.6 |
| COc1cc(CCC(=O)NCc2ccc3c(c2)OCO3)cc(OC)c1OC | 3.07 |
| CC(CSc1nc2ccccc2s1)Cn1c(N2CCCC2)nc2c1c(=O)[nH]c(=O)n2C (stereo not drawn) | -38.2 |
| O=C(CSc1ncnc2c1oc1ccccc12)Nc1nc2ccccc2s1 | 11.1 |
| C/C(=N\Nc1ccc(C(F)(F)F)cn1)c1ccncc1 | -17.5 |
| CC1CCCCN1C(=O)CSc1nnc(-c2cccnc2)n1C1CCCCC1 (stereo not drawn) | -15.5 |

| SMILES | hERG current change (%, negative = inhibition) at 10uM [%] |
| --- | --- |
| CCOC(=O)COc1ccc(Oc2nc(C)cc(OC)n2)nn1 | -7.8 |
| O=c1c2ccccc2sn1-c1cc(S(=O)(=O)N2CCOCC2)ccc1N1CCOCC1 | 10.8 |
| Cc1cccc2cc(CN(CCCO)C(=O)Nc3ccccc3Cl)c(=O)[nH]c12 | 5.32 |
| COc1ccc(/C=N/Nc2cn[nH]c(=O)c2Cl)cc1 | 9.01 |
| COc1ccc2c(C)c(CC(=O)N3C[C@H]4C[C@@H](C3)c3cccc(=O)n3C4)c(=O)oc2c1 | -32.4 |
| Cc1ccccc1P(=O)(CO)c1ccccc1C | -0.622 |
| CC(=O)Nc1nc(C(=O)Nc2c(C)n[nH]c2C)cs1 | -2.95 |
| Cc1ccc(N(CC(=O)NC2CCCCC2)C(=O)CCC(=O)Nc2nccs2)cc1 | -4.93 |
| Cc1ccc(C)c(S(=O)(=O)N/N=C/c2cccnc2)c1 | 7.65 |
| CSc1nc2[nH]c3c(c2c2nncn12)CC(C)(C)OC3 | 4.02 |
| Cc1ccc2nc(-c3cccnc3)cc(C(=O)N3CCN(c4ccc([N+](=O)[O-])cc4)CC3)c2c1 | -68.2 |
| CCCOc1ccc(N2C(=O)CC(NCc3ccc(S(N)(=O)=O)cc3)C2=O)cc1 (stereo not drawn) | 4.38 |
| CCOC(=O)c1c(C)[nH]c(C)c1C(=O)COC(=O)/C=C/c1ccc(OC(F)F)cc1 | -24.1 |
| CCCn1c(=O)c(C(=O)NNS(=O)(=O)c2ccc(NC(=O)OC)cc2)c(O)c2ccccc21 | 9.85 |
| O=C(Nc1ccc(S(=O)(=O)Nc2ccc(F)cc2)cc1)c1ccc(CN2CCOCC2)cc1 | -21.4 |
| CCc1nnc(NC(=O)CCC(=O)NCC2CCCO2)s1 (stereo not drawn) | -23.5 |
| CN1CCN(C(=O)CCCN2C(=O)/C(=C/c3ccccc3)SC2=S)CC1 | -31.6 |
| CCn1nc2cc(C(=O)NCC34CC5CC(CC(C5)C3)C4)ccc2c1OC | -7.34 |
| N#Cc1ccc(C(=O)NCCCSc2ccccc2)cc1 | -32.8 |

| SMILES | hERG current change (%, negative = inhibition) at 10uM [%] |
| --- | --- |
| COCCCN1CCN(C2Cc3ccccc3Sc3ccc(Cl)cc32)CC1.O=C(O)/C=C\C(=O)O (stereo not drawn) | -73.5 |
| CC1(C)Cc2c(sc3nc4n(c(=N)c23)CCCCC4)CO1.Cl | -0.896 |
| O=C(NCCc1ccccc1Cl)C1CCC(=O)N(CCCc2ccccc2)C1 (stereo not drawn) | -34.1 |
| O=C(CC1CCCC1)N1CCCC(Nc2cccc(F)c2)C1 (stereo not drawn) | -9.5 |
| C/C(CC(=O)NC(C)C)=N\NC(=O)COc1cc(C)c(Br)cc1Br | -46.8 |
| Cc1ccsc1C(=O)NCC(C)(C)N1CCOCC1 | -9.41 |
| Cn1c(-c2ccc(F)cc2)cnc1SCC(=O)Nc1ccccc1N1CCOCC1 | -1.23 |
| O=C(NCCS(=O)(=O)NCc1ccc(Cl)cc1)c1ccccc1 | -13.6 |
| COc1ccccc1-c1coc2c(CN3CCCCC3C)c(O)ccc2c1=O (stereo not drawn) | 6.44 |
| O=C1c2ccccc2C(O)(Cc2ccccc2)N1Cc1ccco1 (stereo not drawn) | 10.1 |
| CC(CCc1ccccc1)NC(=O)/C=C/c1ccc(F)cc1 (stereo not drawn) | -23.2 |
| Brc1ccc(-c2nc(-c3cccnc3)no2)o1 | -2.14 |
| O=C(Nc1ncc2c(n1)-c1ccccc1OC2)c1cccc([N+](=O)[O-])c1 | -16.5 |
| C=CCOC(=O)c1ccccc1N | 17.5 |
| C[C@@H]1C=C(C(=O)N2CCOCC2)O[C@H](OCc2ccc(CO)cc2)C1 | 10.3 |
| Cc1nc2sc(C(c3ccccc3)N3CCOCC3)c(O)n2n1 (stereo not drawn) | 12.6 |
| Fc1ccc(-n2c(Cc3ccccc3)nnc2SCc2nc(-c3cccs3)no2)cc1 | -8.41 |
| COC(=O)c1cc(OC)c(OC)cc1NCC(=O)Nc1ccc(OC)c(OC)c1 | 19 |
| CCN(CC)c1nc(C)c(C(C)=O)cc1C#N | 0.00458 |
